The list shows a part of the results.
What follows are compounds tested on S. aureus RN4220 (assay: growth inhibition call (relative growth <= 0.2)). Details: 50 µM.

Growth inhibition call, inactive:
C[C@H]1CN([C@@H](C)CO)C(=O)c2cccc(NC(=O)CCCCCC(=O)Nc3ccccc3N)c2O[C@H]1CN(C)C(=O)Nc1cccc2ccccc12, CCCC#Cc1ccc2c(c1)O[C@H](CN(C)C(=O)c1cnccn1)[C@@H](C)CN([C@@H](C)CO)S2(=O)=O, C[C@@H]1[C@@H]([Si](C)(C)F)[C@H](CC(=O)N(CCO)Cc2ccccc2)O[C@@]12C(=O)N(c1ccccc1)c1ccccc12, C[C@@H]1CCCCO[C@H](CN(C)C(=O)Nc2cccc3ccccc23)[C@H](C)CN([C@@H](C)CO)C(=O)c2cc(NS(=O)(=O)c3ccc(Cl)cc3)ccc2O1, Cc1ccc(S(=O)(=O)Nc2ccc3c(c2)C(=O)N([C@@H](C)CO)C[C@@H](C)[C@@H](CN(C)C(=O)Cc2ccccc2)OCCCC[C@H](C)O3)cc1, COCC#Cc1ccc2c(c1)O[C@H](CN(C)S(=O)(=O)c1cccc(F)c1)[C@@H](C)CN([C@@H](C)CO)S2(=O)=O, COC(=O)Cc1cc(=O)n(-c2ccccc2)[nH]1, CNC(=O)C(=O)Nc1cc(Cl)ccc1C#N
